This note sets out measurements from the supplement of paper PMC11876631.

± gives the standard deviation of the averaged measurements. Laboratory Escherichia coli strains with one amino-acid change in an essential protein, pooled on minimal glucose agar with carbenicillin or gentamicin at twice the control MIC (plus kanamycin and chloramphenicol for the plasmids), 48 h. Fold change of barcode share against drug-free plates; higher = less susceptible. Active = above 20 in both replicates (the paper's putatively resistant). '<' = one read or none on drug, '>' = one read or none on a drug-free plate. Shares are relative, so most strains fall below 1 when a few take over. Listed are strains with at least 15 reads on both drug-free plates, and hits; most hits rest on fewer reference reads. Replicate rank correlation about 0.5. Edits are read from barcodes.

The data set deals with Escherichia coli (laboratory strain). Description: barcode share on antibiotic plates over drug-free plates; higher = less susceptible. The protocol:
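A pool of E. coli strains, each edited to carry one amino-acid change in an essential protein, was grown for 48 h on minimal glucose agar with or without antibiotic; strain barcodes were sequenced; mean of two replicates.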

[1] abbreviates: antibiotic: carbenicillin, 2× MIC (3.1 µg/mL).
[2] abbreviates: antibiotic: gentamicin, 2× MIC (MIC 0.45 µg/mL).

B1: aroB I125A (protein)
chain: MERIVVTLGERSYPITIASGLFNEPASFLPLKSGEQVMLVTNETLAPLYLDKVRGVLEQAGVNVDSVILPDGEQYKSLAVLDTVFTALLQKPHGRDTTLVALGGGVVGDLTGFAAASYQRGVRFAQVPTTLLSQVDSSVGGKTAVNHPLGKNMIGAFYQPASVVVDLDCLKTLPPRELASGLAEVIKYGIILDGAFFNWLEENLDALLRLDGPAMAYCIRRCCELKAEVVAADERETGLRALLNLGHTFGHAIEAEMGYGNWLHGEAVAAGMVMAARTSERLGQFSSAETQRIITLLKRAGLPVNGPREMSAQAYLPHMLRDKKVLAGEMRLILPLAIGKSEVRSGVSHELVLNAIADCQSA
For the protein B1, the “fold change of barcode share” value under setting [1] is > 24.6 [active].

B2: aroB I125Q (protein)
chain: MERIVVTLGERSYPITIASGLFNEPASFLPLKSGEQVMLVTNETLAPLYLDKVRGVLEQAGVNVDSVILPDGEQYKSLAVLDTVFTALLQKPHGRDTTLVALGGGVVGDLTGFAAASYQRGVRFQQVPTTLLSQVDSSVGGKTAVNHPLGKNMIGAFYQPASVVVDLDCLKTLPPRELASGLAEVIKYGIILDGAFFNWLEENLDALLRLDGPAMAYCIRRCCELKAEVVAADERETGLRALLNLGHTFGHAIEAEMGYGNWLHGEAVAAGMVMAARTSERLGQFSSAETQRIITLLKRAGLPVNGPREMSAQAYLPHMLRDKKVLAGEMRLILPLAIGKSEVRSGVSHELVLNAIADCQSA
As for B2, the “fold change of barcode share” value under setting [1] came out at 2.02 ± 1.1.

B3: aroB I125W (protein)
chain: MERIVVTLGERSYPITIASGLFNEPASFLPLKSGEQVMLVTNETLAPLYLDKVRGVLEQAGVNVDSVILPDGEQYKSLAVLDTVFTALLQKPHGRDTTLVALGGGVVGDLTGFAAASYQRGVRFWQVPTTLLSQVDSSVGGKTAVNHPLGKNMIGAFYQPASVVVDLDCLKTLPPRELASGLAEVIKYGIILDGAFFNWLEENLDALLRLDGPAMAYCIRRCCELKAEVVAADERETGLRALLNLGHTFGHAIEAEMGYGNWLHGEAVAAGMVMAARTSERLGQFSSAETQRIITLLKRAGLPVNGPREMSAQAYLPHMLRDKKVLAGEMRLILPLAIGKSEVRSGVSHELVLNAIADCQSA
For B3, the “fold change of barcode share” value under setting [1] is > 34.1 [active].

B4: aroB M274A (protein)
chain: MERIVVTLGERSYPITIASGLFNEPASFLPLKSGEQVMLVTNETLAPLYLDKVRGVLEQAGVNVDSVILPDGEQYKSLAVLDTVFTALLQKPHGRDTTLVALGGGVVGDLTGFAAASYQRGVRFIQVPTTLLSQVDSSVGGKTAVNHPLGKNMIGAFYQPASVVVDLDCLKTLPPRELASGLAEVIKYGIILDGAFFNWLEENLDALLRLDGPAMAYCIRRCCELKAEVVAADERETGLRALLNLGHTFGHAIEAEMGYGNWLHGEAVAAGMVAAARTSERLGQFSSAETQRIITLLKRAGLPVNGPREMSAQAYLPHMLRDKKVLAGEMRLILPLAIGKSEVRSGVSHELVLNAIADCQSA
As for B4, the “fold change of barcode share” value runs as follows: under setting [1], 0.481 ± 0.088; under setting [2], 0.0137 ± 0.0096.

B5: ligA V324A (protein)
chain: MESIEQQLTELRTTLRHHEYLYHVMDAPEIPDAEYDRLMRELRELETKHPELITPDSPTQRVGAAPLAAFSQIRHEVPMLSLDNVFDEESFLAFNKRVQDRLKNNEKVTWCCELKLDGLAVSILYENGVLVSAATRGDGTTGEDITSNVRTIRAIPLKLHGENIPARLEVRGEVFLPQAGFEKINEDARRTGGKVFANPRNAAAGSLRQLDPRITAKRPLTFFCYGVGVLEGGELPDTHLGRLLQFKKWGLPVSDRVTLCESAEEVLAFYHKVEEDRPTLGFDIDGVVIKVNSLAQQEQLGFVARAPRWAVAFKFPAQEQMTFARDVEFQVGRTGAITPVARLEPVHVAGVLVSNATLHNADEIERLGLRIGDKVVIRRAGDVIPQVVNVVLSERPEDTREVVFPTHCPVCGSDVERVEGEAVARCTGGLICGAQRKESLKHFVSRRAMDVDGMGDKIIDQLVEKEYVHTPADLFKLTAGKLTGLERMGPKSAQNVVNALEKAKETTFARFLYALGIREVGEATAAGLAAYFGTLEALEAASIEELQKVPDVGIVVASHVHNFFAEESNRNVISELLAEGVHWPAPIVINAEEIDSPFAGKTVVLTGSLSQMSRDDAKARLVELGAKVAGSVSKKTDLVIAGEAAGSKLAKAQELGIEVIDEAEMLRLLGS
In the case of B5, the “fold change of barcode share” value by setting is: under setting [1], 0.282 ± 0.063; under setting [2], less than 0.00557.

B6: ligA V556A (protein)
chain: MESIEQQLTELRTTLRHHEYLYHVMDAPEIPDAEYDRLMRELRELETKHPELITPDSPTQRVGAAPLAAFSQIRHEVPMLSLDNVFDEESFLAFNKRVQDRLKNNEKVTWCCELKLDGLAVSILYENGVLVSAATRGDGTTGEDITSNVRTIRAIPLKLHGENIPARLEVRGEVFLPQAGFEKINEDARRTGGKVFANPRNAAAGSLRQLDPRITAKRPLTFFCYGVGVLEGGELPDTHLGRLLQFKKWGLPVSDRVTLCESAEEVLAFYHKVEEDRPTLGFDIDGVVIKVNSLAQQEQLGFVARAPRWAVAFKFPAQEQMTFVRDVEFQVGRTGAITPVARLEPVHVAGVLVSNATLHNADEIERLGLRIGDKVVIRRAGDVIPQVVNVVLSERPEDTREVVFPTHCPVCGSDVERVEGEAVARCTGGLICGAQRKESLKHFVSRRAMDVDGMGDKIIDQLVEKEYVHTPADLFKLTAGKLTGLERMGPKSAQNVVNALEKAKETTFARFLYALGIREVGEATAAGLAAYFGTLEALEAASIEELQKVPDVGIVAASHVHNFFAEESNRNVISELLAEGVHWPAPIVINAEEIDSPFAGKTVVLTGSLSQMSRDDAKARLVELGAKVAGSVSKKTDLVIAGEAAGSKLAKAQELGIEVIDEAEMLRLLGS
As for B6, the “fold change of barcode share” value reads like this: under setting [1], 0.182 ± 0.041; under setting [2], less than 0.0126.

B7: ligA V556Q (protein)
chain: MESIEQQLTELRTTLRHHEYLYHVMDAPEIPDAEYDRLMRELRELETKHPELITPDSPTQRVGAAPLAAFSQIRHEVPMLSLDNVFDEESFLAFNKRVQDRLKNNEKVTWCCELKLDGLAVSILYENGVLVSAATRGDGTTGEDITSNVRTIRAIPLKLHGENIPARLEVRGEVFLPQAGFEKINEDARRTGGKVFANPRNAAAGSLRQLDPRITAKRPLTFFCYGVGVLEGGELPDTHLGRLLQFKKWGLPVSDRVTLCESAEEVLAFYHKVEEDRPTLGFDIDGVVIKVNSLAQQEQLGFVARAPRWAVAFKFPAQEQMTFVRDVEFQVGRTGAITPVARLEPVHVAGVLVSNATLHNADEIERLGLRIGDKVVIRRAGDVIPQVVNVVLSERPEDTREVVFPTHCPVCGSDVERVEGEAVARCTGGLICGAQRKESLKHFVSRRAMDVDGMGDKIIDQLVEKEYVHTPADLFKLTAGKLTGLERMGPKSAQNVVNALEKAKETTFARFLYALGIREVGEATAAGLAAYFGTLEALEAASIEELQKVPDVGIVQASHVHNFFAEESNRNVISELLAEGVHWPAPIVINAEEIDSPFAGKTVVLTGSLSQMSRDDAKARLVELGAKVAGSVSKKTDLVIAGEAAGSKLAKAQELGIEVIDEAEMLRLLGS
B7: the “fold change of barcode share” value by setting is: under setting [1], 0.33 ± 0.089; under setting [2], less than 0.0168.

B8: leuD I73A (protein)
chain: MAEKFIKHTGLVVPLDAANVDTDAIIPKQFLQKVTRTGFGAHLFNDWRFLDEKGQQPNPDFVLNFPQYQGASALLARENFGCGSSREHAPWALTDYGFKVVIAPSFADIFYGNSFNNQLLPVKLSDAEVDELFALVKANPGIHFDVDLEAQEVKAGEKTYRFTIDAFRRHCMMNGLDSIGLTLQHDDAIAAYEAKQPAFMN
As for B8, the “fold change of barcode share” value by setting is: under setting [1], 0.402 ± 0.092; under setting [2], less than 0.00928.

B9: leuD F144P (protein)
chain: MAEKFIKHTGLVVPLDAANVDTDAIIPKQFLQKVTRTGFGAHLFNDWRFLDEKGQQPNPDFVLNFPQYQGASILLARENFGCGSSREHAPWALTDYGFKVVIAPSFADIFYGNSFNNQLLPVKLSDAEVDELFALVKANPGIHPDVDLEAQEVKAGEKTYRFTIDAFRRHCMMNGLDSIGLTLQHDDAIAAYEAKQPAFMN
Turning to B9, the “fold change of barcode share” value under setting [1] amounted to 1.04 ± 0.28 and the “fold change of barcode share” value under setting [2] is 0.0151 ± 0.0077.

B10: leuD F144Q (protein)
chain: MAEKFIKHTGLVVPLDAANVDTDAIIPKQFLQKVTRTGFGAHLFNDWRFLDEKGQQPNPDFVLNFPQYQGASILLARENFGCGSSREHAPWALTDYGFKVVIAPSFADIFYGNSFNNQLLPVKLSDAEVDELFALVKANPGIHQDVDLEAQEVKAGEKTYRFTIDAFRRHCMMNGLDSIGLTLQHDDAIAAYEAKQPAFMN
Turning to B10, the “fold change of barcode share” value is, setting by setting: under setting [1], 0.923 ± 0.27; under setting [2], less than 0.00558.

B11: leuD I73Q (protein)
chain: MAEKFIKHTGLVVPLDAANVDTDAIIPKQFLQKVTRTGFGAHLFNDWRFLDEKGQQPNPDFVLNFPQYQGASQLLARENFGCGSSREHAPWALTDYGFKVVIAPSFADIFYGNSFNNQLLPVKLSDAEVDELFALVKANPGIHFDVDLEAQEVKAGEKTYRFTIDAFRRHCMMNGLDSIGLTLQHDDAIAAYEAKQPAFMN
With B11, the “fold change of barcode share” value is 0.734 ± 0.4 under setting [1] and less than 0.0211 under setting [2].

B12: leuD F144A (protein)
chain: MAEKFIKHTGLVVPLDAANVDTDAIIPKQFLQKVTRTGFGAHLFNDWRFLDEKGQQPNPDFVLNFPQYQGASILLARENFGCGSSREHAPWALTDYGFKVVIAPSFADIFYGNSFNNQLLPVKLSDAEVDELFALVKANPGIHADVDLEAQEVKAGEKTYRFTIDAFRRHCMMNGLDSIGLTLQHDDAIAAYEAKQPAFMN
As to B12, the “fold change of barcode share” value runs as follows: under setting [1], 0.604 ± 0.045; under setting [2], 0.00303 ± 0.00075.

B13: leuD I73W (protein)
chain: MAEKFIKHTGLVVPLDAANVDTDAIIPKQFLQKVTRTGFGAHLFNDWRFLDEKGQQPNPDFVLNFPQYQGASWLLARENFGCGSSREHAPWALTDYGFKVVIAPSFADIFYGNSFNNQLLPVKLSDAEVDELFALVKANPGIHFDVDLEAQEVKAGEKTYRFTIDAFRRHCMMNGLDSIGLTLQHDDAIAAYEAKQPAFMN
As to B13, the “fold change of barcode share” value stood at 0.519 ± 0.24 under setting [1] and 0.015 ± 0.011 under setting [2].

B14: leuD F144W (protein)
chain: MAEKFIKHTGLVVPLDAANVDTDAIIPKQFLQKVTRTGFGAHLFNDWRFLDEKGQQPNPDFVLNFPQYQGASILLARENFGCGSSREHAPWALTDYGFKVVIAPSFADIFYGNSFNNQLLPVKLSDAEVDELFALVKANPGIHWDVDLEAQEVKAGEKTYRFTIDAFRRHCMMNGLDSIGLTLQHDDAIAAYEAKQPAFMN
With B14, the “fold change of barcode share” value runs as follows: under setting [1], 0.57 ± 0.042; under setting [2], 0.0104 ± 0.0053.
